We go through 35 compounds from patent US7592316B2, “Peptides as NS3-serine protease inhibitors of hepatitis C virus” (Schering Corporation, priority 2000, dated 2009).

*1 amine or outer side, *2 acyl side, *3 side chain or, on linkers, in order; H or OH if unused. Where a SMILES comes first, the peptide text is derived from it. [ ]: non-standard residue; d: D form. The star is where a group is joined. ξ: configuration not given here. Pro(trans-4-Ph) = O=C(O)[C@@H]1C[C@@H](c2ccccc2)CN1; Pro(4,4-SCH2CH2S) = O=C(O)[C@@H]1CC2(CN1)SCCS2; Isobutyloxycarbonyl = CC(C)COC(=O)*; X2 = CCCC(N[*:1])C(=O)C(=O)[*:2]; Chg = N[C@H](C(=O)O)C1CCCCC1; Phg = N[C@H](C(=O)O)c1ccccc1; Tle = CC(C)(C)[C@H](N)C(=O)O; X63 = COc1ccc(OC)c(C(=O)*)n1; ξChg = NC(C(=O)O)C1CCCCC1; ξPhg = NC(C(=O)O)c1ccccc1; Cbz = O=C(OCc1ccccc1)*; Boc = CC(C)(C)OC(=O)*; OAll = C=CCO*; OPr = CCCO* Where only a bound is given, the exact number is not on record here.

The target in the first experiment is HCV NS3/NS4A protease (strain 1a) (Hepatitis C virus genotype 1a, UniProt P27958). The experiment in a line: biochemical. To be noted: HCV protease continuous assay results, Table 1; read-out: Ki* Range.
With `C=CCOC(=O)CNC(=O)C(=O)C(CCC)NC(=O)[C@@H]1C[C@@H]2CCCC[C@@H]2N1C(=O)OC(C)(C)C` (some centres unmarked) [Example 39], the Ki (as a rule, a measure of affinity in units of concentration, obtained from inhibition or displacement) is above 1000 nM.

As to `C=CCOC(=O)CNC(=O)C(=O)C(CCC)NC(=O)[C@@H]1C[C@@H]2CCCC[C@@H]2N1C(=O)C(NC(=O)OC(C)(C)C)C1CCCCC1` (some centres unmarked) [Example 40], the Ki was above 1000 nM.

On to `C=CCNC(=O)C(=O)C(CCC)NC(=O)[C@@H]1CCCN1C(=O)[C@@H](NC(=O)CCC[C@H](NC(=O)OCc1ccccc1)C(=O)OCc1ccccc1)C(C)C` (some centres unmarked) [Example 41], for which the Ki was above 1000 nM.

In the case of `C=CCNC(=O)C(=O)[C@H](CCC)NC(=O)[C@@H]1CCCN1C(=O)[C@@H](NC(=O)CCC[C@H](N)C(=O)O)C(C)C` [Example 42], the Ki was above 1000 nM.

`C=CCOC(=O)CNC(=O)C(=O)C(CCC)NC(=O)[C@@H]1CCCN1C(=O)[C@@H]1Cc2ccccc2CN1C(=O)OC(C)(C)C` (some centres unmarked) [Example 43]: the Ki was above 1000 nM.

In the case of `C=CCOC(=O)CNC(=O)C(=O)C(CCC)NC(=O)[C@@H]1CCCN1C(=O)[C@@H](NC(=O)OC(C)(C)C)C1CCCCC1` (some centres unmarked) [Example 44], the Ki is above 1000 nM.

Consider `CCCOC(=O)CNC(=O)C(=O)C(CCC)NC(=O)[C@@H]1C[C@@H]2CCCC[C@@H]2N1C(=O)OC(C)(C)C` (some centres unmarked) [Example 45], for which the Ki is above 1000 nM.

For `C=CCNC(=O)C(=O)C(CCC)NC(=O)[C@@H]1CCCN1C(=O)[C@@H](NC(=O)[C@H](Cc1ccccc1)NC(=O)OC(C)(C)C)C(C)C` (some centres unmarked) [Example 46], the Ki was above 1000 nM.

For the compound `C=CCOC(=O)CNC(=O)C(=O)C(CCC)NC(=O)[C@@H]1C[C@@H]2CCCC[C@@H]2CN1C(=O)OCc1ccccc1` (some centres unmarked) [Example 47], the Ki was above 1000 nM.

With `CCCOC(=O)CNC(=O)C(=O)C(CCC)NC(=O)[C@@H]1C[C@@H]2CCCC[C@@H]2CN1C(=O)OCc1ccccc1` (some centres unmarked) [Example 48], the Ki is above 1000 nM.

For `CCCC(NC(=O)[C@@H]1C[C@@H]2CCCC[C@@H]2CN1C(=O)OCc1ccccc1)C(=O)C(=O)NCC(=O)O` (some centres unmarked) [Example 49], the Ki was above 1000 nM.

As for `C=CCOC(=O)CNC(=O)C(=O)C(CCC)NC(=O)[C@@H]1CCCN1C(=O)[C@@H](NC(=O)OCC(C)C)C1CCCCC1` (some centres unmarked) [Example 51], the Ki is above 1000 nM.

`C=CCOC(=O)CNC(=O)C(=O)C(CCC)NC(=O)[C@@H]1CCCN1C(=O)[C@@H](NC(=O)c1cnccn1)C1CCCCC1` (some centres unmarked) [Example 53]: the inhibitory constant (Ki) was above 1000 nM.

For the compound `CCCC(NC(=O)[C@@H]1CCCN1C(=O)[C@@H](NC(=O)OCC(C)C)C1CCCCC1)C(=O)C(=O)NCC(=O)O` (some centres unmarked) [Example 54], the Ki is above 1000 nM.

For `CCCC(NC(=O)[C@@H]1CCCN1C(=O)[C@@H](NC(=O)[C@H](CC(C)C)NC(=O)OCc1ccccc1)C1CCCCC1)C(=O)C(=O)NCC(=O)O` (some centres unmarked) [Example 55] (Cbz-L[Chg]P[X2]G-OH), the Ki is above 1000 nM.

As for `C=CCNC(=O)C(=O)C(CCC)NC(=O)[C@@H]1CCCN1C(=O)[C@@H](NC(=O)[C@@H](N)Cc1ccccc1)C(C)C` (some centres unmarked) [Example 56], the Ki was above 1000 nM.

For the compound `C=CCOC(=O)CNC(=O)C(=O)C(CCC)NC(=O)[C@@H]1CCCN1C(=O)C(NC(=O)OCC1c2ccccc2-c2ccccc21)C1c2ccccc2CCc2ccccc21` (some centres unmarked) [Example 57], the inhibition constant (Ki) is above 1000 nM.

In the case of `CCCC(NC(=O)[C@@H]1CCCN1C(=O)[C@H](CC1CCCCC1)NC(=O)OC(C)(C)C)C(=O)C(=O)NCC(=O)O` (some centres unmarked) [Example 58], the inhibition constant (Ki) was above 1000 nM.

With `C=CCOC(=O)CNC(=O)C(=O)C(CCC)NC(=O)[C@@H]1CCCN1C(=O)[C@H](CC1CCCCC1)NC(=O)OC(C)(C)C` (some centres unmarked) [Example 59], the Ki is above 1000 nM.

Take `C=CCNC(=O)C(=O)C(CCC)NC(=O)[C@@H]1CCCN1C(=O)[C@H](CC1CCCCC1)NC(=O)OC(C)(C)C` (some centres unmarked) [Example 60]: the Ki was above 1000 nM.

In the case of `CCCOC(=O)CNC(=O)C(=O)C(CCC)NC(=O)[C@@H]1CCCN1C(=O)[C@@H](NC(=O)[C@@H](NC(=O)OC(C)(C)C)C(C)(C)C)C(C)C` (some centres unmarked) [Example 61] (Boc-[Tle]VP[X2]G-OPr), the Ki is above 1000 nM.

For `CCCC(NC(=O)[C@@H]1C[C@@H]2CCCC[C@@H]2CN1C(=O)[C@@H](NC(=O)OC(C)(C)C)C1CCCCC1)C(=O)C(=O)NCC(=O)OCc1ccccc1` (some centres unmarked) [Example 62], the Ki is above 1000 nM.

With `CCC[C@@H](NC(=O)[C@@H]1C[C@@H]2CCCC[C@@H]2CN1C(=O)[C@@H](NC(=O)OC(C)(C)C)C1CCCCC1)C(=O)C(=O)NCC(=O)O` [Example 63], the Ki was above 1000 nM.

Regarding `C=CCOC(=O)CNC(=O)C(=O)C(CCC)NC(=O)[C@@H]1CCCN1C(=O)[C@@H](NC(=O)c1nc(OC)ccc1OC)C1CCCCC1` (some centres unmarked) [Example 64], the Ki is above 1000 nM.

As for `C=CCOC(=O)CNC(=O)C(=O)C(CCC)NC(=O)[C@@H]1CCCN1C(=O)[C@@H](NC(=O)[C@@H](NC(=O)c1nc(OC)ccc1OC)C(C)C)C1CCCCC1` (some centres unmarked) [Example 65] (X63-V[Chg]P[X2]G-OAll), the Ki is above 1000 nM.

As to `CCCC(NC(=O)[C@@H]1CCCN1C(=O)C(NC(=O)[C@@H](NC(=O)OC(C)(C)C)C(C)C)C1c2ccccc2CCc2ccccc21)C(=O)C(=O)NCC(=O)O` (some centres unmarked) [Example 66], the Ki was above 1000 nM.

Consider `CCCC(NC(=O)[C@@H]1C[C@@H](c2ccccc2)CN1C(=O)[C@@H](NC(=O)OC(C)(C)C)C1CCCCC1)C(=O)C(=O)NCC(=O)N[C@H](C(=O)OC)c1ccccc1` (stereo partly drawn) [Example 68] (Boc-[Chg][Pro(trans-4-Ph)][X2]G[Phg]-OMe), for which the Ki lay in the range of 101 to 1000 nM.

Turning to `CCCC(NC(=O)[C@@H]1C[C@@H](c2ccccc2)CN1C(=O)[C@@H](NC(=O)OC(C)(C)C)C1CCCCC1)C(=O)C(=O)NCC(=O)NCc1ccccc1OC` (some centres unmarked) [Example 70], the Ki is above 1000 nM.

Consider `CCCC(NC(=O)[C@@H]1C[C@@H](c2ccccc2)CN1C(=O)[C@@H](NC(=O)OC(C)(C)C)C1CCCCC1)C(=O)C(=O)NCC(=O)N[C@H](C(N)=O)c1ccccc1` (stereo partly drawn) [Example 71] (Boc-[Chg][Pro(trans-4-Ph)][X2]G[Phg]-NH2), for which the Ki fell in the range of 101 to 1000 nM.

In the case of `CCCC(NC(=O)[C@@H]1C[C@@H](c2ccccc2)CN1C(=O)[C@@H](N)C1CCCCC1)C(=O)C(=O)NCC(=O)N[C@H](C(N)=O)c1ccccc1` (stereo partly drawn) [Example 72] (H-[Chg][Pro(trans-4-Ph)][X2]G[Phg]-NH2), the Ki is above 1000 nM.

Regarding `CCCC(NC(=O)[C@@H]1C[C@@H](c2ccccc2)CN1C(=O)[C@@H](NC(=O)OCC(C)C)C1CCCCC1)C(=O)C(=O)NCC(=O)N[C@H](C(N)=O)c1ccccc1` (stereo partly drawn) [Example 73] (Isobutyloxycarbonyl-[Chg][Pro(trans-4-Ph)][X2]G[Phg]-NH2), the Ki was in the range of 101 to 1000 nM.

For the compound `C=CCOC(=O)CNC(=O)C(=O)C(CCC)NC(=O)[C@@H]1CC2(CN1C(=O)C(NC(=O)OCC(C)C)C1CCCCC1)SCCS2` (some centres unmarked) [Example 74], the Ki is above 1000 nM.

As to `CCCC(NC(=O)[C@@H]1CC2(CN1C(=O)C(NC(=O)OCC(C)C)C1CCCCC1)SCCS2)C(=O)C(=O)NCC(=O)O` (some centres unmarked) [Example 75], the Ki is above 1000 nM.

Turning to `CCCC(NC(=O)[C@@H]1CC2(CN1C(=O)C(NC(=O)OCC(C)C)C1CCCCC1)SCCS2)C(=O)C(=O)NCC(=O)NC(C(N)=O)c1ccccc1` (some centres unmarked) [Example 76] (Isobutyloxycarbonyl-[ξChg][Pro(4,4-SCH2CH2S)][X2]G[ξPhg]-NH2), the Ki fell in the range of 1 to 100 nM.

The experiment is the same for the next values; noted with them: Ki* Range, HCV protease continuous assay results, Table 1.
Compound `C=CCOC(=O)CNC(=O)C(=O)[C@H](CCC)NC(=O)[C@@H]1CCCN1C(=O)[C@@H](NC(=O)Oc1ccc(C(=O)OC)cc1)C1CCCCC1` [Example 50] gave a Ki above 1000 nM.
